Results from PubChem BioAssay AID463173 (ICCB-Longwood Screening Facility, Harvard Medical School, 2010).
Among all 52,000 compounds or so, about 4,300 (8.3%) were called active. Cut-off read from the data, not from the text of the source: active = survival mostly below about 52% (no sharp cut-off); inactive = mostly above about 56%. The list shows a part of the results.

What follows are molecules tested on DeltatarO mutant (assay: growth inhibition of S. aureus wild type versus tarO mutant, primary screen, teichoic acid synthesis inhibitors, RN4220, OD600 (AID 463173)). Conditions: OD600, 18 h, hits give low values, screened at 18.75 µg/mL (by protocol).

Compound	survival
CCCN1CCN(CC2=C(C(=O)OCC)C(c3cccc(OC)c3OC)NC(=O)N2)CC1 (stereo unspecified)	inactive: 94%
COc1ccc(CN2CCN(c3ncnc4sc5c(c34)CCCC5)CC2)cc1F	active: 33%
CSc1ncc(C(=O)NCc2ccccc2Cl)c(C(F)(F)F)n1	inactive: 89%
Cc1ccc(NC(=O)N2CCc3c(sc4c3CCCC4)C2c2ccccc2)cc1F (stereo unspecified)	inactive: 102%
Cc1ccc(OCCSc2nc3ccccc3n2CC(=O)N2CCCCC2)cc1C	active: 46%
COC(=O)c1ccccc1NC(=O)CCn1nc(C)c2c(C)n(-c3ccccc3)nc2c1=O	inactive: 75%
CC(=O)c1cccc(Nc2cc(C)nc3nc(-c4ccccc4C)nn23)c1	inactive: 90%
Cc1ccc(CNC(=O)C2CCCN(c3nc4c(C)cc(C)cc4s3)C2)cc1 (stereo unspecified)	inactive: 94%
O=C(Nc1ccc(NC(=O)c2cccs2)cc1)c1ccc(Cl)cc1	inactive: 70%
COC(=O)c1ccccc1NC(=O)Cn1ncc2c(C)n(Cc3ccc(F)cc3)c(C)c2c1=O	inactive: 52%
CCOc1ccc(CNC(=O)CN2C(=O)CSc3ccc(S(=O)(=O)N4CCOCC4)cc32)cc1OC	inactive: 73%
Cn1c(=O)cc(OCC(=O)N2CCN(c3ccccc3F)CC2)c2ccccc21	inactive: 82%
Cc1cc2oc(C(=O)N(Cc3ccc(N(C)C)cc3)CC3CCCO3)c(C)c2cc1C (stereo unspecified)	inactive: 54%
O=C(CCCCn1c(=O)c2ccccc2n(Cc2ccccc2F)c1=O)NCc1ccc2c(c1)OCO2	inactive: 120%
O=C(NCc1ccc(Cl)cc1)C1(c2cccs2)CCOCC1	inactive: 80%
COc1ccc(-c2noc(-c3cc(C(C)C)[nH]n3)n2)cc1	inactive: 65%
CCN1CCc2c(sc(NC(=O)CSc3ccccc3)c2-c2nc3ccccc3s2)C1	active: -5%
Cc1cc(C(F)(F)F)c(C#N)c(SCC(=O)C(C)(C)C)n1	inactive: 79%
COc1ccc(CNC(=O)CCc2nc3cccnc3n2Cc2ccc(OC)cc2)cc1	inactive: 80%

Compound	survival
O=C(Cn1cc(S(=O)(=O)Cc2cccc(Cl)c2)c2ccccc21)Nc1ccc(F)c(Cl)c1	inactive: 82%
CCCCOc1ccc(Cn2c(=O)oc3ccccc32)cc1	inactive: 127%
Cc1ccccc1Cc1c(C)nc2c(-c3ccccc3)c(C)[nH]n2c1=O	active: -3%
O=C(COc1ccccc1)NCCc1csc(-c2ccc(F)cc2)n1	inactive: 99%
C=CCN1C(=O)C(C(=O)Nc2ccc(C)cc2)C2CC1(C)Oc1ccccc12 (stereo unspecified)	inactive: 67%
CN(C(=O)Cn1c(=O)n(Cc2ccc(C(=O)NCc3ccc4c(c3)OCO4)cc2)c(=O)c2ccccc21)c1ccccc1	inactive: 63%
Clc1cc(Cl)c2nsnc2c1	inactive: 97%
COc1ccc(C2CC(=O)c3cc(-c4nc(-c5cccc([N+](=O)[O-])c5)cs4)c(=O)n(-c4ccccc4C)c3C2)cc1 (stereo unspecified)	inactive: 158%
O=C(NCc1ccccc1F)c1cccc(NC(=O)N2CCSc3ncccc32)c1	inactive: 85%
Cc1ccc(-c2cc(NC(=O)COc3c(C)cc(C)cc3C)on2)cc1	inactive: 67%
CCOc1ccc(OCC(=O)NCCS(=O)(=O)N2CCN(c3ccc(OC)cc3)CC2)cc1	inactive: 75%
COC(=O)c1ccc(NC(=O)c2nn(C)c3c2COc2ccccc2-3)cc1	inactive: 79%
Cc1ccc(NC(=O)Cn2c(=O)n(CCc3ccccc3)c(=O)c3sc4ccccc4c32)cc1C	inactive: 88%
COc1ccccc1CNS(=O)(=O)c1cc(-c2cc(C)no2)ccc1C	inactive: 102%
O=C(NCc1cccc(Cl)c1)c1oc(=O)c2ccccc2c1-c1ccccc1	inactive: 93%
Cc1nn(CCCC(=O)NCCc2ccc(Cl)cc2)c(=O)c2nn(-c3ccccc3)c(C)c12	inactive: 83%
COc1ccc(N(C(=O)c2cc(OC)c(OC)c(OC)c2)S(=O)(=O)c2ccc(C)cc2)cc1	inactive: 142%
Cn1cc(-c2cc3n(n2)CCC(=O)N3CC(=O)NCc2ccccc2)c2ccccc21	inactive: 101%
Cc1cccc(Cn2c(SCc3ccc(C(=O)NCc4cccs4)cc3)nc3ccncc32)c1	inactive: 73%

Compound	survival
Cc1ccccc1C(=O)Nc1ccc2nc(SCC(=O)N(C)c3ccccc3)sc2c1	inactive: 59%
CN(C)C1(CNC(=O)COc2cccc(Cl)c2)CCCCC1	inactive: 95%
CCC(=O)N1c2ccccc2CC1C(=O)NCCN1CCN(c2ccccc2F)CC1 (stereo unspecified)	inactive: 78%
Cc1ccc(NC(=O)CSc2nc(=O)n(CCN3CCOCC3)c3c2CCC3)cc1Cl	inactive: 69%
CC(C)(C)OC(=O)N1CCC(c2c(C(=O)NCc3ccccn3)cnn2-c2ccccc2Cl)CC1	active: -4%
Cc1ccc(C)c(N2CCN(S(=O)(=O)c3ccc(C4CCCCC4)cc3)CC2)c1	inactive: 58%
CCCc1noc(-c2ccc(NCc3ccccc3OC)c([N+](=O)[O-])c2)n1	inactive: 58%
CCOc1ccccc1NC(=O)CSc1nc(-c2cccs2)cc(C(F)(F)F)n1	inactive: 69%
COc1ccc(Cl)cc1NC(=O)c1c(NCc2cccs2)sc2c1CCC(C)C2 (stereo unspecified)	inactive: 80%
CCC(=O)Nc1cccc(-c2nc3ccccc3[nH]2)c1C	inactive: 94%
Cc1cc(-c2ccc(C)c(S(=O)(=O)NCCc3ccccc3)c2)on1	inactive: 80%
COc1cccc(CNC(=O)C2CCN(c3ncnc4c3nc3n4CCCCC3)CC2)c1	inactive: 86%
O=C(Nc1cc(-c2nc3ccccc3o2)ccc1Cl)c1cc([N+](=O)[O-])ccc1N1CCOCC1	inactive: 57%
CCOC(=O)C1=C(C)NC(=S)NC1c1ccc(OCC(=O)N2CCCCC2)c(OC)c1 (stereo unspecified)	inactive: 74%
Cc1ccc(-n2c(=O)c3cccnc3n2CC(=O)Nc2ccccc2C(F)(F)F)cc1C	inactive: 72%
Cc1ccc(C(=O)c2cc(C)sc2NC(=O)CN2CCN(C(=O)c3ccco3)CC2)cc1	inactive: 101%
Cc1ccnc(NC(c2cc(C)ccc2O)c2ccc3cccnc3c2O)c1 (stereo unspecified)	active: 4%
Cc1ccc(CNC(=O)C2CCN(S(=O)(=O)c3c(C)noc3/C=C/c3ccccc3F)CC2)o1	inactive: 90%
